Laboratory results reported in publication PMC10322840, “RAS-independent ERK activation by constitutively active KSR3 in non-chordate metazoa” (Nature Communications, 2023).

Target: T1, human B-RAF, wild type (HA-tagged copy and MYC-tagged copy) (human, UniProt P15056)
T1 construct: Homo sapiens B-RAF; Two differently tagged copies were co-expressed: one carries HA, the other MYC; no chain carries both tags; The construction of the tagged human B-RAF plasmids is not described; also called hB-RAF; human HA-B-RAF; source: HEK293T, transfected (pCS2+), in lysate
Test: co-IP; lysates of co-transfected HEK293T cells (200 ul at 0.5 mg/ml); mouse anti-myc 9E10 overnight at 4 °C, Dynabeads Pan mouse IgG 2 h; five washes in 50 mM Tris HCl pH 7.5, 150 mM NaCl, 10% glycerol, 0.2% Triton X100, 1 mM EDTA; blots with rabbit anti-HA and anti-Myc
Conditions: partners not purified

B1: human B-RAF R506E (natural protein)
chain: not shown
notes: Homo sapiens B-RAF with R506E in the dimerization interface; also called hB-RAF R506E; source: HEK293T, transfected (pCS2+), in lysate
  fold change of B-RAF co-immunoprecipitated, against wild-type B-RAF: 1.3 fold
